This is one part of the list.
system: HSkMC (human skeletal muscle cells); experiment: cytotoxicity call (relative viability < 0.9); conditions: 10 µM

Structure (SMILES) | cytotoxicity call
COCC(=O)N1C[C@@H](C)[C@@H](OC)CN(C)C(=O)c2cc(NC(=O)c3cc(C)on3)ccc2OC[C@H]1C | inactive
C[C@@H]1CCCCO[C@H](CN(C)Cc2ccc(C(F)(F)F)cc2)[C@H](C)CN([C@@H](C)CO)C(=O)c2cc(N(C)C)ccc2O1 | inactive
CCCCC(=O)OC1(C(=O)CO)C(C)CC2C3CCC4=CC(=O)C=CC4(C)C3(F)C(O)CC21C (stereo not given) | inactive
C[C@@H]1CCCCO[C@H](CN(C)C(=O)Cc2ccccc2)[C@@H](C)CN([C@H](C)CO)C(=O)c2cc(NC(=O)CCC(F)(F)F)ccc2O1 | inactive
COC(=O)/C=c1\sc2n(c1=O)CCN=2 | inactive
CC(=O)Nc1cccc(S(N)(=O)=O)c1 | inactive
COCC(=O)Nc1ccc2c(c1)OC[C@H](C)N(Cc1cccc(F)c1)C[C@@H](C)[C@H](OC)CN(C)C2=O | inactive
C[C@@H]1CCCCO[C@H](CN(C)C(=O)Nc2cccc3ccccc23)[C@@H](C)CN([C@H](C)CO)C(=O)c2cc(NS(=O)(=O)c3cn(C)cn3)ccc2O1 | inactive
C[C@@H]1CN([C@@H](C)CO)C(=O)Cc2cc(NC(=O)CCN3CCOCC3)ccc2O[C@@H]1CN(C)S(=O)(=O)c1ccc(F)cc1 | inactive
C[C@H]1CN([C@@H](C)CO)S(=O)(=O)c2ccc(C#Cc3cccc(F)c3)cc2O[C@@H]1CN(C)C(=O)CN1CCOCC1 | inactive
C[C@@H]1CCCCO[C@H](CN(C)S(=O)(=O)c2cccs2)[C@@H](C)CN([C@H](C)CO)C(=O)c2cc(NC(=O)C3CCCCC3)ccc2O1 | inactive
C[C@H]1CCCCO[C@H](CN(C)S(=O)(=O)c2ccc(Cl)cc2)[C@@H](C)CN([C@@H](C)CO)C(=O)c2cc(NS(=O)(=O)c3ccc(F)cc3)ccc2O1 | inactive
COCCc1nc2c([nH]1)c(=O)n(C)c(=O)n2C | inactive
C[C@@H]1CN([C@H](C)CO)S(=O)(=O)c2ccc(Br)cc2O[C@H]1CN(C)CC1CCOCC1 | inactive
C[C@@H]1CN([C@H](C)CO)C(=O)Cc2cc(NC(=O)Cc3ccccc3)ccc2O[C@H]1CN(C)S(=O)(=O)c1cccs1 | inactive
COc1ccc(NC(=O)Nc2ccc3c(c2)CC(=O)N([C@@H](C)CO)C[C@H](C)[C@H](CN(C)C(=O)Nc2ccc(C(F)(F)F)cc2)O3)cc1 | inactive
Cc1ccc(S(=O)(=O)N[C@H]2C=C[C@H](CC(=O)NCCN3CCCCC3)O[C@H]2CO)cc1 | inactive
C[C@@H]1CN([C@@H](C)CO)C(=O)c2cc(NC(=O)Cc3ccccc3)ccc2O[C@@H](C)CCCCO[C@H]1CN(C)Cc1ccc(C(=O)O)cc1 | inactive
Cc1noc(C)c1NC(=O)Nc1ccc2c(c1)CC(=O)N([C@H](C)CO)C[C@@H](C)[C@H](CN(C)S(=O)(=O)c1cn(C)cn1)O2 | inactive
C[C@H](CO)N1C[C@H](C)[C@@H](CN(C)Cc2ccc(Oc3ccccc3)cc2)Oc2ccc(NC(=O)Cc3ccccc3)cc2C1=O | inactive

Structure (SMILES) | cytotoxicity call
C[C@@H]1CCCCO[C@H](CN(C)C(=O)c2ccccc2)[C@@H](C)CN([C@@H](C)CO)C(=O)c2cc(NS(=O)(=O)c3cccs3)ccc2O1 | inactive
COCC#Cc1ccc([C@@H]2[C@H](CO)N3C(=O)CN(C(=O)C4CCOCC4)C[C@@H]23)cc1 | inactive
CC(C)NC(=O)Nc1ccc2c(c1)C(=O)N([C@H](C)CO)C[C@@H](C)[C@@H](CN(C)C(=O)Nc1ccccc1)OCCCC[C@@H](C)O2 | inactive
CCOC(=O)[C@H]1C/C=C/C[C@H](C(=O)OCC)C(=O)O[C@H]2[C@@H](OC)O[C@H](CO)[C@@H](OC(=O)Nc3cccc(F)c3)[C@@H]2OC1=O | active
Cc1ccc(S(=O)(=O)N(C)C[C@@H]2Oc3ccc(NC(=O)Cn4cnnn4)cc3CC(=O)N([C@H](C)CO)C[C@@H]2C)cc1 | inactive
O=c1c(O)c(-c2ccc(O)cc2)oc2ccccc12 | inactive
C[C@@H]1CCCCO[C@@H](CN(C)S(=O)(=O)c2ccc(F)cc2)[C@H](C)CN([C@@H](C)CO)C(=O)c2cc(NS(C)(=O)=O)ccc2O1 | inactive
CO[C@@H]1CN(C)C(=O)c2ccc(NS(=O)(=O)CC(F)(F)F)cc2OC[C@@H](C)N(C(=O)c2ccc3c(c2)OCO3)C[C@@H]1C | inactive
C[C@@H]1CN([C@@H](C)CO)C(=O)c2cc(C#CCc3ccccc3)cnc2O[C@@H]1CN(C)C(=O)C1CCOCC1 | inactive
COCC#Cc1ccc2c(c1)O[C@H](CN(C)C(=O)c1ccccc1)[C@H](C)CN([C@H](C)CO)S2(=O)=O | inactive
NS(=O)(=O)c1ccc(NC(=S)NCCN2CCOCC2)cc1 | inactive
C[C@@H]1CCCCO[C@H](CN(C)C(=O)c2ccccc2)[C@@H](C)CN([C@@H](C)CO)C(=O)c2cc(NC(=O)Nc3ccc(F)cc3)ccc2O1 | inactive
O=C(C[C@@H]1CC=CC[C@H](NC(=O)OCC2c3ccccc3-c3ccccc32)C(=O)OCCNC1=O)NCCO | inactive
CCNC(=O)C[C@@H]1CC[C@H]2[C@@H](COC[C@@H](O)CN2C(=O)Nc2c(C)noc2C)O1 | inactive
COc1ccccc1C#Cc1cnc2c(c1)C(=O)N([C@@H](C)CO)C[C@H](C)[C@H](CN(C)C(=O)c1ccc3c(c1)OCO3)O2 | inactive
C[C@H]1CN([C@@H](C)CO)C(=O)c2cccc(NC(=O)Nc3ccc(C(F)(F)F)cc3)c2O[C@@H]1CN(C)Cc1ccc(Cl)c(Cl)c1 | active
C[C@@H]1CCCCO[C@H](CN(C)C(=O)Nc2cccc3ccccc23)[C@H](C)CN([C@@H](C)CO)C(=O)c2cc(NC(=O)Nc3ccccc3)ccc2O1 | inactive
C[C@H]1CN([C@@H](C)CO)C(=O)c2c(c3ccccc3n2C)-c2ccccc2CO[C@H]1CN(C)C(=O)Nc1ccccc1 | inactive
COc1ccc(S(=O)(=O)N(C)C[C@@H]2OCc3cn(nn3)CCCC(=O)N([C@H](C)CO)C[C@@H]2C)cc1 | inactive
C[C@H](CO)N1C[C@H](C)[C@H](CN(C)S(=O)(=O)c2ccc(Cl)cc2)Oc2ccc(NS(=O)(=O)c3cn(C)cn3)cc2C1=O | inactive
